About 2,200 (0.71%) of roughly 310,000 compounds showed an effect of 50% or more. The effect is printed as a negative number. Some of the results follow.

Chain of human ether-à-go-go-related gene (hERG) potassium channel (Q12809 whole entry, looked up): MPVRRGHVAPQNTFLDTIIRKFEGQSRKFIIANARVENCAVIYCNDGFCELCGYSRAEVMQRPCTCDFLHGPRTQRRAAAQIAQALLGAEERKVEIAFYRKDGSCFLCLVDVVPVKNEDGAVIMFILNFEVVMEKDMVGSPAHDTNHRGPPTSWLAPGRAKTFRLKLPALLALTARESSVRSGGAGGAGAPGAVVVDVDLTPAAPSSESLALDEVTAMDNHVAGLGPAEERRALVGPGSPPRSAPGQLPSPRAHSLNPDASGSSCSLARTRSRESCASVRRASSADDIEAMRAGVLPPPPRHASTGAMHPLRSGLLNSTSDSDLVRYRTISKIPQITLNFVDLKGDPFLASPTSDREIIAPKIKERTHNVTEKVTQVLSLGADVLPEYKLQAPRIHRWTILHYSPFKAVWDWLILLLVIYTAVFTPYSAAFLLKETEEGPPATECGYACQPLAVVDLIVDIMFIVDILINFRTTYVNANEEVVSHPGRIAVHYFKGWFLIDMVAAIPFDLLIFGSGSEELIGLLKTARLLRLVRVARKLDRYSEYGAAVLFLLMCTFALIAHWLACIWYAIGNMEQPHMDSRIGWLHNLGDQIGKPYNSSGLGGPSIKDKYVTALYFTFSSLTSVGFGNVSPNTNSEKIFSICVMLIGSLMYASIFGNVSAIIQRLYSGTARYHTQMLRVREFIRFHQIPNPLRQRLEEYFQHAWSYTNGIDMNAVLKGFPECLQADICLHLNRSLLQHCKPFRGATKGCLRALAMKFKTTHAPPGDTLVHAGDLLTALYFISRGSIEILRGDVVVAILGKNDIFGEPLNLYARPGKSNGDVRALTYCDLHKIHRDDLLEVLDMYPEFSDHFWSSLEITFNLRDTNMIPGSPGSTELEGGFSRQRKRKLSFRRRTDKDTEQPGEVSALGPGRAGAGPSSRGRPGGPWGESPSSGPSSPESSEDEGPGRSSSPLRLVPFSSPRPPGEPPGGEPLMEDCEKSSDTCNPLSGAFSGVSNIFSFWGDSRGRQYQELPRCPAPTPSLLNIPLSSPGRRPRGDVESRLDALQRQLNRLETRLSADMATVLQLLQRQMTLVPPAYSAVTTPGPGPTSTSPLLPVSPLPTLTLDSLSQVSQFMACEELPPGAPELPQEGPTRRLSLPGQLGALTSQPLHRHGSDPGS

This test has as its target human ether-à-go-go-related gene (hERG) potassium channel (human, UniProt Q12809). In words: primary screen, population patch clamp on CHO cells stably expressing hERG.
Consider `Cc1c(NC(=O)CN2CCN(c3ccc(F)cc3)CC2)c(=O)n(-c2ccccc2)n1C`, for which the “hERG current change (%, negative = inhibition) at 1uM” value is given as 6.62%. As to `CCC1C(c2ccccc2)N(C)C(c2ccccc2)CC1(O)c1ccccc1.Cl` (centres unmarked), the “hERG current change (%, negative = inhibition) at 1uM” value is reported as 16.7%. As to `CCN(CC)S(=O)(=O)c1cccc(C(=O)NCCCN2CCOCC2)c1`, the “hERG current change (%, negative = inhibition) at 1uM” value is 15.5%. For the compound `Nc1cnc(Nc2ccc(Br)cc2)nc1N.O=S(=O)(O)O`, the “hERG current change (%, negative = inhibition) at 1uM” value was 2.64%.

As to `Cc1oc2c(O)c(O)ccc2c(=O)c1-c1ccc(Cl)cc1`, the “hERG current change (%, negative = inhibition) at 1uM” value worked out at 6.21%. For `Cc1c(NC(=O)c2ccc(=O)oc2)c(=O)n(-c2ccccc2)n1C`, the “hERG current change (%, negative = inhibition) at 1uM” value was determined as 4.8%. In the case of `O=C(O)CCc1cccnc1`, the “hERG current change (%, negative = inhibition) at 1uM” value amounted to 8.49%.

In the case of `CCOC(=O)c1cccc(NC(=O)c2ccc(NC(=O)C3CCCO3)cc2)c1` (centres unmarked), the “hERG current change (%, negative = inhibition) at 1uM” value stood at 10.4%. In the case of `COc1ccc(C2C(C#N)=C(N)Nc3nc4ccccc4n32)cc1` (centres unmarked), the “hERG current change (%, negative = inhibition) at 1uM” value was determined as 11.8%. Take `Cc1c(C)c2ccc(OC(C)C(=O)NC3CCN(Cc4ccccc4)CC3)cc2oc1=O` (centres unmarked): the “hERG current change (%, negative = inhibition) at 1uM” value was -17.2%. As to `O=C(O)c1ccc(CSc2nnc(COc3ccccc3)o2)cc1`, the “hERG current change (%, negative = inhibition) at 1uM” value is 14%. For `O=C(CCc1nc(-c2ccccc2F)no1)NCCc1ccccc1Cl` the value was 4.46%; for `COc1ccc(S(=O)(=O)N2CCCC2C(=O)NCc2ccccc2Cl)cc1` (centres unmarked), 1.23%; for `O=C(CSc1nnc(Cn2c(=O)sc3ccccc32)n1CCc1ccccc1)N1CCOCC1`, 1.18%. Take `Cc1cccc(/C=N\NC(=O)c2ccccc2-n2cccc2)c1`: the “hERG current change (%, negative = inhibition) at 1uM” value was 15.3%. Turning to `CCOC(=O)c1sc(=S)n(-c2ccc3c(c2)OCO3)c1N`, the “hERG current change (%, negative = inhibition) at 1uM” value was found to be 9%. As for `O=C(COc1cccnc1[N+](=O)[O-])N1CCN(S(=O)(=O)c2ccccc2)CC1`, the “hERG current change (%, negative = inhibition) at 1uM” value is given as 16%. As to `Cc1ccc(C)c(-n2nnnc2SCC(=O)NNC(=O)c2ccco2)c1`, the “hERG current change (%, negative = inhibition) at 1uM” value was 2.87%. As for `C=CCc1ccccc1OCC(=O)OCCNC(=O)c1cccnc1.Cl`, the “hERG current change (%, negative = inhibition) at 1uM” value was 8.05%.

Regarding `COc1ccc(/C=C2\C(=O)NCC(=O)N2Cc2ccccc2)cc1`, the “hERG current change (%, negative = inhibition) at 1uM” value worked out at 7.73%.

As for `Cc1ccc(SC(=O)c2c([N+](=O)[O-])c(C)nn2C)cc1`, the “hERG current change (%, negative = inhibition) at 1uM” value stood at 9.08%. For `Cc1cc2ccc3ccccc3c2cc1CN(C)C.Cl`, the “hERG current change (%, negative = inhibition) at 1uM” value stood at 2.33%. Consider `COc1c(OC(C)=O)ccc(/C=N\NC(=O)c2ccc(Br)cc2)c1[N+](=O)[O-]`, for which the “hERG current change (%, negative = inhibition) at 1uM” value was found to be 8.84%. Consider `O=C(Cc1c(Cl)cccc1Cl)Nc1ccncc1Cl`, for which the “hERG current change (%, negative = inhibition) at 1uM” value came to 8.65%. For the compound `Cc1cc2c(cc(C(=O)OCC(=O)NCc3cccs3)n2C(C)C)o1`, the “hERG current change (%, negative = inhibition) at 1uM” value is reported as -2.12%. For the compound `Cc1cccc(C2=N/C(=C/c3cccs3)C(=O)O2)c1`, the “hERG current change (%, negative = inhibition) at 1uM” value came out at 6.53%. With `CC(=O)c1nn(-c2cccc(C)c2)cc1C(=O)c1cccc(Br)c1`, the “hERG current change (%, negative = inhibition) at 1uM” value is recorded as 15.1%. As to `O=C(NC1CCCCCCC1)c1c(O)c2ccccc2[nH]c1=O`, the “hERG current change (%, negative = inhibition) at 1uM” value is given as 20.4%.

As to `CCOc1ccc(N2C(=O)/C(=C/c3ccco3)C(=O)NC2=S)cc1`, the “hERG current change (%, negative = inhibition) at 1uM” value is listed as 18%. As for `Cc1ccccc1NC(=S)/C(=C(\[O-])c1ccc(C)c([N+](=O)[O-])c1)[n+]1ccccc1`, the “hERG current change (%, negative = inhibition) at 1uM” value is 2.05%. Take `COc1cccc(-n2nnnc2SCC(=O)c2ccc(NC(C)=O)cc2)c1`: the “hERG current change (%, negative = inhibition) at 1uM” value is reported as -19.4%. With `COc1ccccc1-n1c(SCC(=O)NC2CC2)nc2ccccc2c1=O`, the “hERG current change (%, negative = inhibition) at 1uM” value is 3.93%. For `COC(=O)c1cc(CNC(=O)CC(C)c2ccccc2)ccc1OC` (centres unmarked), the “hERG current change (%, negative = inhibition) at 1uM” value came to 10.8%. On to `O=C(/C=C/c1ccccc1)c1ccccn1`, for which the “hERG current change (%, negative = inhibition) at 1uM” value was determined as 10.7%. With `CCCCN(C)S(=O)(=O)c1cc2c3c(c1)CCC(=O)N3CCC2`, the “hERG current change (%, negative = inhibition) at 1uM” value is listed as -11%. Under `C=CCN1C(=O)/C(=c2\sc3nc(=O)c(Cc4ccc(OC)c(OC)c4)nn3c2=O)c2ccccc21` stands 11.1%. In the case of `CC(=O)N(Cc1cc(=O)[nH]c2ccccc12)c1cccc(C)c1`, the “hERG current change (%, negative = inhibition) at 1uM” value turned out to be 4.54%. With `COC(=O)C1CCN(c2cc(=O)n(Cc3ccc(F)cc3)c(=O)[nH]2)CC1`, the “hERG current change (%, negative = inhibition) at 1uM” value is on record as -0.998%. Under `Nc1ccc([N+](=O)[O-])cc1C(=O)NNC(=O)c1ccco1` stands 9.22%. Turning to `COc1ccc(-n2c(SCC(=O)Nc3nccs3)nc3sc4c(c3c2=O)CCN(C)C4)cc1`, the “hERG current change (%, negative = inhibition) at 1uM” value is 7.52%. In the case of `Cl.NC(N)=Nc1nc2ccc(Br)cc2c(=O)[nH]1`, the “hERG current change (%, negative = inhibition) at 1uM” value worked out at 3.18%. As to `COc1ccc(NS(=O)(=O)c2cc(NC(=O)CNC(=O)c3cccc(OC)c3)ccc2C)cc1`, the “hERG current change (%, negative = inhibition) at 1uM” value is given as 17.2%. For `CCN(CC)C(=O)CSc1nnc([C@@H](NC(=O)OC(C)(C)C)C(C)C)o1`, the “hERG current change (%, negative = inhibition) at 1uM” value is -4.79%. On to `Cc1ccc(NC(=O)CSCc2cc(=O)n3cc(C)sc3n2)c(C)c1`, for which the “hERG current change (%, negative = inhibition) at 1uM” value was 11.6%. Under `c1ccc(Cn2ncc3ccccc32)cc1` stands 10.6%. Under `CCCCOc1ccc(S(=O)(=O)N2CCCCCC2)cc1` stands -3.73%; under `O=C(COC(=O)c1ccc(N2CCCC2=O)cc1)c1ccccc1`, 5.18%.

Take `CCCCN1C(=O)NC(=O)C2(Cc3cc(C)ccc3N(C)C2)C1=O` (centres unmarked): the “hERG current change (%, negative = inhibition) at 1uM” value is 5.39%. Turning to `COc1ccc(CNC(=O)[C@@H](NC(=O)C2CCN(C(=O)[C@@H](N)Cc3ccccc3)CC2)C(C)C)cc1`, the “hERG current change (%, negative = inhibition) at 1uM” value was 1.21%.

Take `CCC(C)N(C(=O)COC(=O)c1cn(CC)c2nc(C)ccc2c1=O)C1CCS(=O)(=O)C1` (centres unmarked): the “hERG current change (%, negative = inhibition) at 1uM” value amounted to 13.6%. For `CS(=O)(=O)c1ccc(Cl)c(NC(=O)CSC(=S)N2CCCC2)c1`, the “hERG current change (%, negative = inhibition) at 1uM” value is 11.6%. As for `O=C(O)c1cccc2c1-c1ccccc1/C2=N\Nc1ccccc1`, the “hERG current change (%, negative = inhibition) at 1uM” value amounted to 15.3%. As for `COc1ccc(/C=N/NC(=O)CSc2nnc(C)n2-c2ccccc2)c(OC)c1OC`, the “hERG current change (%, negative = inhibition) at 1uM” value came to 11.3%.

Consider `COC(=O)C1(Cc2cc(-c3cccc(Br)c3)no2)CCN(C(=O)OC(C)(C)C)CC1`, for which the “hERG current change (%, negative = inhibition) at 1uM” value came out at 12.1%. For the compound `Cc1ccc(NC(=O)c2cc(F)c(F)cc2Cl)nc1`, the “hERG current change (%, negative = inhibition) at 1uM” value came out at 6.74%. For `Cc1nn(C(CC(=O)O)C(=O)O)c(C)c1Br` (centres unmarked), the “hERG current change (%, negative = inhibition) at 1uM” value worked out at 15%.

(Values after article PMC4336329 (PLoS ONE, 2015).)
